{"source": "patent US20190381086A1", "about": "“INHIBITION OF NEDDYLATION USING GLYCYL-tRNA SYNTHETASE INHIBITORS” (The Scripps Research Institute, priority 2015, published 2019)", "test_system": "NCI-H322M", "conditions": "Non-Small Cell Lung Cancer", "protocol": "The human tumor cell lines of the cancer screening panel grown in RPMI 1640 medium containing 5% fetal bovine serum and 2 mM L-glutamine. For a typical screening experiment, cells are inoculated into 96 well microtiter plates in 100 μL at plating densities ranging from 5,000 to 40,000 cells/well depending on the doubling time of individual cell lines. After cell inoculation, the microtiter plates are incubated at 37° C., 5% CO2, 95% air and 100% relative humidity for 24 h prior to addition of experimental drugs.\nAfter 24 hours, two plates of each cell line fixed in situ with TCA, to represent a measurement of the cell population for each cell line at the time of drug addition (Tz). Experimental drugs are solubilized in dimethyl sulfoxide at 400-fold the desired final maximum test concentration and stored frozen prior to use. At the time of drug addition, an aliquot of frozen concentrate is thawed and diluted to twice the desired final maximum test concentration with complete medium containing 50 μg/ml gentamicin. […]\nFollowing drug addition, the plates are incubated for an additional 48 h at 37° C., 5% CO2, 95% air, and 100% relative humidity. […] Bound stain is subsequently solubilized with 10 mM trizma base, and the absorbance is read on an automated plate reader at a wavelength of 515 nm. […] Using the seven absorbance measurements [time zero, (Tz), control growth, (C), and test growth in the presence of drug at the five concentration levels (Ti)], the percentage growth is calculated at each of the drug concentrations levels. Percentage growth inhibition is calculated as:\nThree dose response parameters are calculated for each experimental agent. […] The drug concentration resulting in total growth inhibition (TGI) is calculated from Ti=Tz. […] Values are calculated for each of these three parameters if the level of activity is reached; however, if the effect is not reached or is exceeded, the value for that parameter is expressed as greater or less than the maximum or minimum concentration tested."}
{"smiles": "NCC(=O)NS(=O)(=O)OC[C@H]1O[C@@H](n2cnc3c(N)ncnc32)[C@H](O)[C@@H]1O", "note": "[GlySA, glycylsulfamoyladenosine]", "values": [{"measurement": "GI50", "setting": "Homo sapiens", "result": 1.51, "unit": "µM"}, {"measurement": "CC50", "setting": "Homo sapiens, read-out: LC50 (the source's name)", "result": 22.9, "unit": "µM"}, {"measurement": "LC50/GI50", "result": 15.1}]}
